Data as given in PubChem BioAssay AID741 (SRMLSC, 2007).
The shares of active, inactive and inconclusive entries below differ from those in the screen. Activity calls are given as the source filed them. No stated cut-off is given here; in the data, active means toxicity enhancement factor above about 0.054; inconclusive means between about 0.00067 and that limit; inactive means weaker than that.

Assay: MRP-overexpressing cell chemosensitization – dose response (AID 741)
Settings: MRP-overexpressing cells, viability with/without cytotoxic drug; hits give high values

SMILES	toxicity enhancement factor
CC(C)(C)c1ccc(C(=O)NNC(=O)Cc2cccc3ccccc23)cc1	inconclusive: 0.0035
CCOC(=O)N1CCC(Nc2c(Nc3ccc(F)cc3)c(=O)c2=O)CC1	inconclusive: 0.0098
Cc1cccc(Cn2c(NCCO)nc3c2c(=O)n(C)c(=O)n3C)c1	inconclusive: 0.0074
O=C(CSc1nnc(COc2ccccc2)o1)c1ccccc1	inconclusive: 0.0017
COc1ccc(NC(=O)CN2CCN(C3c4ccccc4-c4ccccc43)CC2)c(OC)c1	inconclusive: 0.0202
CC(C)(C)C1CC=C2C(C#N)=C(N)C(C#N)(C#N)C(c3cccs3)C2C1 (stereo unspecified)	inconclusive: 0.0443
CN1C(C(=O)Nc2ccccn2)=C(O)c2sccc2S1(=O)=O	inactive: -0.0064
COc1ccccc1C1C(C#N)=C(N)N(c2cccnc2)C2=C1C(=O)CC(C)(C)C2 (stereo unspecified)	inconclusive: 0.0213
CCCNS(=O)(=O)c1ccc(NC(=O)c2ccccn2)cc1	inactive: -0.001
CCCCC1C(=O)N(c2ccccc2)N(c2ccccc2)C1=O	inactive: -0.0047
Cc1nc(C)c(C)nc1C	inactive: -0.004
CCOC(=O)/C(C#N)=C/c1cc(C)n(-c2ccc(C)cc2)c1C	inactive: -0.0003
COc1ccc(NC(=O)C2C3C=CC(C3)C2C(=O)NCc2ccccn2)c(OC)c1 (stereo unspecified)	inactive: -0.0167
COc1cc(/C=C/C(=O)CC(=O)/C=C/c2ccc(O)c(OC)c2)ccc1O	inactive: -0.0391
CCCc1nnc(SCc2ccc(C(=O)OC)o2)n1N	inconclusive: 0.0214
Cc1ccc(-c2nc3ncccn3c2NC2CCCCC2)o1	active: 0.0632
CC(C(=O)O)c1ccc(N2Cc3ccccc3C2=O)cc1 (stereo unspecified)	inactive: -0.0019
Cc1ccc(C)c(N2CCN(C(=O)C3CCN(S(=O)(=O)c4cccc5nsnc45)CC3)CC2)c1	inconclusive: 0.0344

SMILES	toxicity enhancement factor
Cc1ccc(NC(=O)N(Cc2ccc3c(c2)OCO3)Cc2cc3cc4c(cc3[nH]c2=O)OCCO4)cc1	inconclusive: 0.0446
CCN(CC)C(=O)CSc1nc2c(sc(=S)n2-c2ccccc2)c(=O)n1Cc1ccco1	active: 0.0846
Cc1ccc(/C=N/Nc2ncc(Cl)cc2Cl)s1	inactive: -0.0071
Cc1cc(/C=C(\C#N)C(=O)OCC(=O)NC(=O)NC(C)(C)C)c(C)n1CCC(C)C	inconclusive: 0.0076
CC(Cc1ccc(O)c(O)c1)C(C)Cc1ccc(O)c(O)c1 (stereo unspecified)	inactive: -0.009
CC1(C)Cc2c(C#N)c(SCCC#N)nc(N3CCOCC3)c2CS1	inconclusive: 0.0211
Nc1ccc(-n2nncc2-c2ccco2)cc1	inconclusive: 0.0032
COCC(C)OC(=O)C(C#N)c1nc2ccccc2nc1N1CCN(Cc2ccccc2)CC1 (stereo unspecified)	inactive: -0.0013
CC1CCCN(CC(=O)Nc2ccc(S(=O)(=O)N3CCCCC3)cc2)C1 (stereo unspecified)	inconclusive: 0.0072
CN(C)c1nc2c(c(=O)n(C)c(=O)n2C)n1Cc1ccccc1	inconclusive: 0.0052
COc1ccc(C(c2nnnn2C(C)(C)C)N2CCN(c3nc4ccccc4s3)CC2)cc1OC (stereo unspecified)	inactive: -0.0199
O=C(c1ccc(S(=O)(=O)N2CCCC2)cc1)N1CCN(Cc2ccc3c(c2)OCO3)CC1	inconclusive: 0.0257
Cc1ccc(-n2ncc3c(N4CCN(c5ccccc5)CC4)ncnc32)c(C)c1	inactive: -0.037
CCOC(=O)N1CCC(Nc2c(Nc3cccc(CC)c3)c(=O)c2=O)CC1	active: 0.268
COC(=O)c1[nH]c2cccc(OC)c2c1NC(=O)CCN1CCN(c2cccc(Cl)c2)CC1	inconclusive: 0.0093
CCc1nc(SCC(=O)Nc2c(C)nn(C)c2C)c2cnn(-c3ccccc3)c2n1	inactive: -0.0042
CC1(C)Cc2c(sc3c2C2=NCCN2C=N3)CO1	inconclusive: 0.002
Cc1ccc(N=C(NOCc2ccc(Cl)cc2Cl)c2nonc2N)c(C)c1	inconclusive: 0.0069
